Values marked as one replicate rest on one cluster of the flow cell; about a third of the high ones do not repeat.
Tested on: ATP
Test: switch fluorescence ratio, 500 uM ATP over buffer (Cy3 cluster intensity, sum of 5 cycles each) (fold (ratio)); higher = stronger signal-on switching upon ATP binding; sequences stand for … in TCGTCGGCAGCGTCAGATGTGTATAAGAGACAGTTTTTTTTTTTTTTTTTTTTTTTTT…TC
Conditions: aptamer strand: ATP DNA aptamer (quencher-CACCTGGGGGAGTATTGCGGAGGAAGG + anchor), 100 nM annealed; ATP concentration: 500 uM; one replicate
Outline: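 Exposure to 500 uM ATP lasted 15 min at 22 °C before imaging, and a selection-buffer image was taken beforehand, for Cy3-labelled switching-strand clusters on a modified Illumina MiSeq flow-cell annealed to 100 nM quencher-labelled ATP aptamer. Five buffer/ATP cycles were run with NaOH stripping and re-annealing between them. The fluorescence ratio per cluster is summed target-cycle over summed buffer-cycle Cy3 intensity, averaged per switch-domain sequence. Clusters outside 100-1000 RFU were excluded.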

Q: GGGGAGGGG was tested. Which switch fluorescence ratio did it give?
A: 0.968

Q: With GATTGACGGT as the sequence, how does the switch fluorescence ratio read?
A: 1.04

Q: With CATTCTAAGG as the sequence, how does the switch fluorescence ratio read?
A: 1.01

Q: For CAGACTCCCG, which switch fluorescence ratio is on record?
A: 1.02

Q: How did the switch fluorescence ratio turn out when CGTTGAACGT was run?
A: 0.929

Q: GACTCCTGCG was tested. Which switch fluorescence ratio did it give?
A: 1.07

Q: With AATACTACGA as the sequence, how does the switch fluorescence ratio read?
A: 1.06

Q: How did the switch fluorescence ratio turn out when CGTGTGCTGA was run?
A: 0.979

Q: How did the switch fluorescence ratio turn out when AGAAGAAATT was run?
A: 1.01

Q: Which switch fluorescence ratio does the source give for TCACATTCTG here?
A: 1.03

Q: With AATATCAGTG as the sequence, how does the switch fluorescence ratio read?
A: 0.988

Q: GGACGAGGGT was tested. Which switch fluorescence ratio did it give?
A: 1.05

Q: For GACGGTATGT, which switch fluorescence ratio is on record?
A: 1.04

Q: With GCTGAATGAC as the sequence, how does the switch fluorescence ratio read?
A: 1.05

Q: ACAAGGTCGA was tested. Which switch fluorescence ratio did it give?
A: 1.03

Q: With CACGATGAAC as the sequence, how does the switch fluorescence ratio read?
A: 1.1

Q: For TTAGCCTTCT, which switch fluorescence ratio is on record?
A: 1.08

Q: ACTTTGGTAC was tested. Which switch fluorescence ratio did it give?
A: 1.06

Q: Which switch fluorescence ratio does the source give for GGAATTAGTA here?
A: 1.01

Q: With AGTATCGTGG as the sequence, how does the switch fluorescence ratio read?
A: 0.998

Q: For GCCGGCGTAG, which switch fluorescence ratio is on record?
A: 1.02

Q: TGAGACAACT was tested. Which switch fluorescence ratio did it give?
A: 1.04

Q: ACAGCGCGAG was tested. Which switch fluorescence ratio did it give?
A: 1.02

Q: For AACTTTGTCG, which switch fluorescence ratio is on record?
A: 1.16

Q: How did the switch fluorescence ratio turn out when CTACGTAGTT was run?
A: 1.05

Q: How did the switch fluorescence ratio turn out when AGCTGCCCCG was run?
A: 1.16

Q: AAGCAGCCG was tested. Which switch fluorescence ratio did it give?
A: 0.991

Q: How did the switch fluorescence ratio turn out when GCTACGTATT was run?
A: 1.2

Q: For GTATTGGCGG, which switch fluorescence ratio is on record?
A: 1.02

Q: With AGCGCTTTCG as the sequence, how does the switch fluorescence ratio read?
A: 1.01

Q: For CTATTGGGAA, which switch fluorescence ratio is on record?
A: 0.989

Q: For CGGCCTGGTC, which switch fluorescence ratio is on record?
A: 0.985

Q: With ACCCACGTCC as the sequence, how does the switch fluorescence ratio read?
A: 1.49

Q: With GATGATAATA as the sequence, how does the switch fluorescence ratio read?
A: 1.02

Q: How did the switch fluorescence ratio turn out when GTGTTAGGTG was run?
A: 1.11

Q: For ATGGTCAGAA, which switch fluorescence ratio is on record?
A: 0.981

Q: CGTAGGTTTC was tested. Which switch fluorescence ratio did it give?
A: 1.02

Q: With TAGTGATAGA as the sequence, how does the switch fluorescence ratio read?
A: 1.07

Q: Which switch fluorescence ratio does the source give for AGCCTCGCCG here?
A: 0.999

Q: Which switch fluorescence ratio does the source give for CACATTGAAA here?
A: 0.997

Q: For AAAGCGTCCG, which switch fluorescence ratio is on record?
A: 1.04

Q: Which switch fluorescence ratio does the source give for TGATGCTGTG here?
A: 0.987

Q: How did the switch fluorescence ratio turn out when CCCCAGCAAG was run?
A: 6.3

Q: For AACGCAGAGC, which switch fluorescence ratio is on record?
A: 1.19

Q: Which switch fluorescence ratio does the source give for AGTACCACC here?
A: 1.19

Q: How did the switch fluorescence ratio turn out when AATTAGCGCG was run?
A: 0.993

Q: With TGCGATTTAT as the sequence, how does the switch fluorescence ratio read?
A: 0.987

Q: AGTAACCGAA was tested. Which switch fluorescence ratio did it give?
A: 1.01

Q: ATGCGAGTGT was tested. Which switch fluorescence ratio did it give?
A: 1.01

Q: With GGGTCATAGG as the sequence, how does the switch fluorescence ratio read?
A: 1

Q: For TAGTTATCGC, which switch fluorescence ratio is on record?
A: 1.01

Q: Which switch fluorescence ratio does the source give for AACTGCAAGA here?
A: 1.16

Q: CGGGGAGCCC was tested. Which switch fluorescence ratio did it give?
A: 0.981

Q: TACCGGACGC was tested. Which switch fluorescence ratio did it give?
A: 1.82

Q: For AGGTGAATGT, which switch fluorescence ratio is on record?
A: 1.02

Q: TATTGATTG was tested. Which switch fluorescence ratio did it give?
A: 0.979

Q: For TGCTACATTA, which switch fluorescence ratio is on record?
A: 1.04

Q: With GGGAGCTGCT as the sequence, how does the switch fluorescence ratio read?
A: 0.969

Q: With TCGCTTCCGC as the sequence, how does the switch fluorescence ratio read?
A: 1.38

Q: For TCACCAATCG, which switch fluorescence ratio is on record?
A: 0.988

Q: How did the switch fluorescence ratio turn out when ACCGGCCAGT was run?
A: 1.08

Q: With CCTAAATAAT as the sequence, how does the switch fluorescence ratio read?
A: 1.1

Q: For CGACATGTCC, which switch fluorescence ratio is on record?
A: 1.02

Q: For AGGGGGTGT, which switch fluorescence ratio is on record?
A: 1.03

Q: With CAGATAGCCG as the sequence, how does the switch fluorescence ratio read?
A: 1.02

Q: CAGTGCCGGT was tested. Which switch fluorescence ratio did it give?
A: 0.999

Q: For GGGATTCATA, which switch fluorescence ratio is on record?
A: 1.02

Q: How did the switch fluorescence ratio turn out when AAAAAAAGTT was run?
A: 0.985

Q: TTTAAACTTC was tested. Which switch fluorescence ratio did it give?
A: 0.952

Q: For CTTAATCTCA, which switch fluorescence ratio is on record?
A: 0.941

Q: How did the switch fluorescence ratio turn out when GAAATTTTAG was run?
A: 0.993

Q: How did the switch fluorescence ratio turn out when GATTGTCACC was run?
A: 1.02

Q: How did the switch fluorescence ratio turn out when GCTTTAGCGG was run?
A: 0.977

Q: GGGGTATAAG was tested. Which switch fluorescence ratio did it give?
A: 0.978

Q: Which switch fluorescence ratio does the source give for TTGTTTGAAT here?
A: 0.984

Q: Which switch fluorescence ratio does the source give for AACGACAAGC here?
A: 1.19

Q: TGCAATCCAA was tested. Which switch fluorescence ratio did it give?
A: 1.09

Q: With CTCCGACGGA as the sequence, how does the switch fluorescence ratio read?
A: 1.46

Q: Which switch fluorescence ratio does the source give for CTCCTAGCCA here?
A: 1.17

Q: For GATTATACTG, which switch fluorescence ratio is on record?
A: 1.08

Q: Which switch fluorescence ratio does the source give for TGCTTTAGCC here?
A: 1.05

Q: TGATGTGACG was tested. Which switch fluorescence ratio did it give?
A: 1.05

Q: With AGTCATTCGA as the sequence, how does the switch fluorescence ratio read?
A: 1.05

Q: How did the switch fluorescence ratio turn out when CGGTAGCCGG was run?
A: 1.01

Q: ATGACGTGT was tested. Which switch fluorescence ratio did it give?
A: 0.912

Q: Which switch fluorescence ratio does the source give for TCATCCGCCG here?
A: 1.56

Q: How did the switch fluorescence ratio turn out when CTCTACCTAC was run?
A: 1.46

Q: For GATGACTTAC, which switch fluorescence ratio is on record?
A: 1.23

Q: GACAGCTGGG was tested. Which switch fluorescence ratio did it give?
A: 1.01

Q: With ATAGTAGAG as the sequence, how does the switch fluorescence ratio read?
A: 1.01

Q: Which switch fluorescence ratio does the source give for TACATTCTCG here?
A: 1.05

Q: How did the switch fluorescence ratio turn out when AAGGCTATTT was run?
A: 0.965

Q: For TGTGTACGAC, which switch fluorescence ratio is on record?
A: 1.02

Q: For TAGGATGCGT, which switch fluorescence ratio is on record?
A: 0.985

Q: With TGCGTATAGG as the sequence, how does the switch fluorescence ratio read?
A: 1.02

Q: For TTTGTAGTCT, which switch fluorescence ratio is on record?
A: 0.999

Q: With ATACGGAGTG as the sequence, how does the switch fluorescence ratio read?
A: 0.968

Q: For GCAGTGTTGA, which switch fluorescence ratio is on record?
A: 0.996

Q: For GAGTGTCCAA, which switch fluorescence ratio is on record?
A: 1.02

Q: Which switch fluorescence ratio does the source give for CAGTAACCTA here?
A: 1.04

Q: How did the switch fluorescence ratio turn out when CTGCTTGCCT was run?
A: 1.02

Q: For GTTGTTTATG, which switch fluorescence ratio is on record?
A: 0.966

Q: How did the switch fluorescence ratio turn out when CCTTCGGAGC was run?
A: 4.32

Q: For GAATTACTGT, which switch fluorescence ratio is on record?
A: 1.08

Q: How did the switch fluorescence ratio turn out when CCATTCGTTG was run?
A: 1.03

Q: CTGTCTTGGA was tested. Which switch fluorescence ratio did it give?
A: 1.02

Q: With TTTGATGGAT as the sequence, how does the switch fluorescence ratio read?
A: 0.992

Q: For ATCGTTTACC, which switch fluorescence ratio is on record?
A: 1.03

Q: For CTTGTGAGCC, which switch fluorescence ratio is on record?
A: 1.05

Q: With TTCAGACATT as the sequence, how does the switch fluorescence ratio read?
A: 1.01

Q: For ATCCTAAG, which switch fluorescence ratio is on record?
A: 1

Q: Which switch fluorescence ratio does the source give for AAGCGATTTG here?
A: 1.03

Q: Which switch fluorescence ratio does the source give for CAGGGCTCAG here?
A: 1

Q: Which switch fluorescence ratio does the source give for TGACGGACAG here?
A: 1.01

Q: Which switch fluorescence ratio does the source give for TCTTTCGAGG here?
A: 1.01

Q: How did the switch fluorescence ratio turn out when TGGTTCCCCC was run?
A: 1.4

Q: With GGAAAGGTAC as the sequence, how does the switch fluorescence ratio read?
A: 1.07

Q: How did the switch fluorescence ratio turn out when ACCGGCGGCG was run?
A: 1.01

Q: ATAACCATGA was tested. Which switch fluorescence ratio did it give?
A: 0.982

Q: Which switch fluorescence ratio does the source give for ATACGCTAT here?
A: 1.53

Q: With ACATCGATGG as the sequence, how does the switch fluorescence ratio read?
A: 0.989

Q: How did the switch fluorescence ratio turn out when CGGCTCGTTC was run?
A: 0.943

Q: Which switch fluorescence ratio does the source give for ACGGGATACG here?
A: 1.09

Q: With CATAGATCTA as the sequence, how does the switch fluorescence ratio read?
A: 0.977

Q: For GGCCGAGCAC, which switch fluorescence ratio is on record?
A: 1.58

Q: Which switch fluorescence ratio does the source give for GTAGTAGGAT here?
A: 0.968

Q: For CGCCGTTTCT, which switch fluorescence ratio is on record?
A: 0.972

Q: TCCTAAAGTT was tested. Which switch fluorescence ratio did it give?
A: 0.984

Q: How did the switch fluorescence ratio turn out when AGCCATCTGT was run?
A: 0.953

Q: TTAGACTAAG was tested. Which switch fluorescence ratio did it give?
A: 0.986

Q: GAAATCCGGC was tested. Which switch fluorescence ratio did it give?
A: 1.06

Q: How did the switch fluorescence ratio turn out when GATGAGATGC was run?
A: 1.01

Q: For GCCTAAGTGC, which switch fluorescence ratio is on record?
A: 0.958

Q: How did the switch fluorescence ratio turn out when GTTCCACGAT was run?
A: 1.04

Q: With GTTCTGGCTG as the sequence, how does the switch fluorescence ratio read?
A: 1.04

Q: With CCATAGGGGT as the sequence, how does the switch fluorescence ratio read?
A: 1.01

Q: How did the switch fluorescence ratio turn out when CGCTTACAAA was run?
A: 1.01

Q: With AGGGACTAC as the sequence, how does the switch fluorescence ratio read?
A: 1.06

Q: For AATCCCAAGG, which switch fluorescence ratio is on record?
A: 1.38

Q: GGATTACAGC was tested. Which switch fluorescence ratio did it give?
A: 1.04

Q: How did the switch fluorescence ratio turn out when ATGGCAAGCA was run?
A: 1.1

Q: With CTGGTTGTTT as the sequence, how does the switch fluorescence ratio read?
A: 0.989

Q: With AGCGGAGGGC as the sequence, how does the switch fluorescence ratio read?
A: 0.99

Q: How did the switch fluorescence ratio turn out when TTTACCAGG was run?
A: 1.2

Q: With AAGCGCTGGA as the sequence, how does the switch fluorescence ratio read?
A: 1.04

Q: How did the switch fluorescence ratio turn out when TATCGTGGTG was run?
A: 0.972

Q: How did the switch fluorescence ratio turn out when TATTTCCGAG was run?
A: 1.16

Q: With CGAACTTTAT as the sequence, how does the switch fluorescence ratio read?
A: 1.02

Q: Which switch fluorescence ratio does the source give for CTCTATTTTA here?
A: 0.971

Q: For GTCAGTCGGT, which switch fluorescence ratio is on record?
A: 0.994

Q: How did the switch fluorescence ratio turn out when AACGTGGGCC was run?
A: 0.999

Q: How did the switch fluorescence ratio turn out when AGTGTCTAGT was run?
A: 1.01

Q: How did the switch fluorescence ratio turn out when CGGTATGCTT was run?
A: 0.99

Q: GACTGAAATG was tested. Which switch fluorescence ratio did it give?
A: 0.999

Q: How did the switch fluorescence ratio turn out when GAGCAAGCCT was run?
A: 2.22

Q: How did the switch fluorescence ratio turn out when CCCCAATGCT was run?
A: 1.28

Q: With TTTAGGAGTC as the sequence, how does the switch fluorescence ratio read?
A: 1
